Here are results for 22 molecules from article PMC12136788.

The labels stand for the following.
T1: UNK ZnF1-3 (human, UniProt Q9C0B0 31-174)
T1 sequence: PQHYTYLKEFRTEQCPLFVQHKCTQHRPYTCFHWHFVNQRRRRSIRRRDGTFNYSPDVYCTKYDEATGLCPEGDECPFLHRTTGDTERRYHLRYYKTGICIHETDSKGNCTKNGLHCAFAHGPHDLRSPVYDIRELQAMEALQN

B1: chr18:34472677:34472678:+_ENSMUSG00000005871_ENSMUST00000115781|mus_hu|FALSE|FALSE (ssRNA)
RNA: GGGAGUUCUACAGUCCGACGAUCUGCACUAUGUAUUUUAUGGGCUAGGUCGGCUGGGUAUUGACCAUAACUGCAAAACUUACUUUCAUCAUCUUCAGAAUAGGAUUCAAUCGAGGGUUUCAUUUGACCUCUUUUACCAUAACCCAACAGAGGAUUGAGCAUCA
B2: 171526598_171526718_1044_CDS_ENSG00000117523_ENST00000495585|human|control|control (ssRNA)
RNA: GGGAGUUCUACAGUCCGACGAUCCUGGAACUGAAGCUGAGACUGAGGCUGAGGCUGAAACUGGAGCUAAGGGUGAGGCUGGAACUGGAGCUGAGGUUGAGGCCAGAACUGGAGCUAAAGUUGAGGCUGGAACCGGAGCUGAGGCAACAGAGGAUUGAGCAUCA
B3: chr14:70181642:70181643:+_ENSG00000100647_ENST00000342745|hu_hu|FALSE|FALSE (ssRNA)
RNA: GGGAGUUCUACAGUCCGACGAUCACCCAAACUGAUUGAGUGACAUCCUGCACAGAGUCAAUUAUGAAUGUGUUGUUUUAAACCAUUAUAUGAGUACCAUUCUGCAAAGGAUUCCAUAGUGGUGCGAUAACCUGAAGAAGCCAGCAACAGAGGAUUGAGCAUCA
B4: 20567692_20567812_725_CDS_ENSG00000121741_ENST00000382871|human|control|control (ssRNA)
RNA: GGGAGUUCUACAGUCCGACGAUCGCCAUCAUUCACAGAGCUUACACCUGUUUCUAAAGUUGUAACAUUAGCAAUCUGAAUUUCAGAGUCUGGUUCUGUGGUGAUACCACUAUUACCCAUUCCUGCAUUUACCUUACUUCUUGACAACAGAGGAUUGAGCAUCA
B5: chr3:148522152:148522153:-_ENSMUSG00000028184_ENSMUST00000106128|mus_hu|FALSE|FALSE (ssRNA)
RNA: GGGAGUUCUACAGUCCGACGAUCUGGUGAGGUAUCAUGGUAGUUGGCAUAGUUAAUUAUGGCCUCGCCACUCUUAAUUCUAGUCCUCAAGUCAAAUUUCACAAUAUUCCUCGUUCUUUCUUUGUUAAAGAAGACAGCACCAUCCAACAGAGGAUUGAGCAUCA
B6: chr14:48151594:48151595:+_ENSMUSG00000037536_ENSMUST00000168833|mus_mus|motif|central (ssRNA)
RNA: GGGAGUUCUACAGUCCGACGAUCAUUGAAGUUUUUUUAAAAAAUUUUUAACCAGACAAAAGGAUGCACAACAUUUUAAUCGGUUAUAUGAUAUUGUCUUAUUCUGUGGUGAUUAUGUUUAGUCAGCUGUUCAUAAUAUACAAUCAACAGAGGAUUGAGCAUCA
B7: chr4:115894766:115894767:+_ENSMUSG00000028698_ENSMUST00000030464|mus_hu|mus_mus_mus_hu_True|68_88 (ssRNA)
RNA: GGGAGUUCUACAGUCCGACGAUCUUCCACACGGAAAUGUACUUCGGGUUUCCAACGGGCCAGUACCGUCCAGCCAAAACUACCCGAACAGGGUCCUCCCCCUCUCUCCUACAGAACACAACAAAAUGCCCCCGAACUUUCAAGCAACAGAGGAUUGAGCAUCA
B8: chr19:60835742:60835743:+_ENSMUSG00000072437_ENSMUST00000088237|mus_hu|FALSE|FALSE (ssRNA)
RNA: GGGAGUUCUACAGUCCGACGAUCUCCAAAAAGGACUUUGUAGGAAAAUUAAAAUACAAAGAAAAAUAAAAGCCACUAGAAAUUUUAAGUCUGUACAGAAAAGAACAGGUUAAGACAAUCUGUACCUCUACAGUUGGAGAAGCCCAACAGAGGAUUGAGCAUCA
B9: 90283538_90296387_2345_CDS_ENSG00000196730_ENST00000408954|human|control|control (ssRNA)
RNA: GGGAGUUCUACAGUCCGACGAUCGAGCUUAAUUCUUGGCUGCAGGUUCUGUGUGGGUCGGAGCUGCUGGAUGAAGAGUCCUCGGUGCGUAUCCUUUCGAAGUCUUGCAAGGAGACCUGCUACGUGCUCGUGCUGUUCCGAUCUCAACAGAGGAUUGAGCAUCA
B10: chr15:31439531:31439532:-_ENSMUSG00000039100_ENSMUST00000090227|mus_hu|motif|central (ssRNA)
RNA: GGGAGUUCUACAGUCCGACGAUCAAAUCUGUGCUUGCAUAAUUCACAGUAUUCUUUUCGACUGUGUUUCAGCCAUUGAACGGAGCAUUCUUGAUGGAUAAACUUAAUACUGCCAGUACAUACACAAGGAUGAUAAAGCGGUUUCAACAGAGGAUUGAGCAUCA
B11: chr15:44267162:44267163:+_ENSMUSG00000022338_ENSMUST00000060652|mus_hu|FALSE|FALSE (ssRNA)
RNA: GGGAGUUCUACAGUCCGACGAUCCUGAGCAAGGAAUGUUCUUAUUCUUUGUAGGAGCUCCUUCUUUACACUGUCAGGUACCAGGGCUCUGCCUUUUGGAGUGAUUUCAGCCACCAAGUCAUCAACAGUAACGUGUUCUAGUCCCAACAGAGGAUUGAGCAUCA
B12: chr2:49628351:49628352:+_ENSMUSG00000026764_ENSMUST00000028102|mus_mus|FALSE|FALSE (ssRNA)
RNA: GGGAGUUCUACAGUCCGACGAUCCAAAGGACCCCUCCAUCAGACUCCAAUAGCAGCCAACAGUGGCAACAACAUGAAACAAAGUGAACACAGGUAAACACAAAAUCAUCUUUGUAAAAUAAAUACUUCAAUAGAAGUUGUCUUCAACAGAGGAUUGAGCAUCA
B13: chr1:39463905:39463906:+_ENSG00000174574_ENST00000432648|hu_hu|FALSE|FALSE (ssRNA)
RNA: GGGAGUUCUACAGUCCGACGAUCUGAGGAGUGAGGUUGACUUUCCGAAGCACAAGCUUCACUCUGAUUAAGAACAACUUCUAAAUGUCUCCACCUCUGAUAACGACUAUAUUCUUGUUUUAUGUUCUGAAAAAUUUGCUCCGGCAACAGAGGAUUGAGCAUCA
B14: chr8:26941818:26941819:-_ENSMUSG00000031575_ENSMUST00000166078|mus_mus|motif|central (ssRNA)
RNA: GGGAGUUCUACAGUCCGACGAUCACUAGCAGACACAGCACUGCUUUGUUUCUGGUUGUCAUAAGCAGGACCAAUAUUACGGAGAUCCUGAUCCAAAAGUCCAAACUUGGGGUAAUCUUCUUCUGGGUCUUUGCUUCCUGGGUCCAACAGAGGAUUGAGCAUCA
B15: chr2:26507767:26507768:+_ENSG00000138029_ENST00000317799|hu_mus|motif|central (ssRNA)
RNA: GGGAGUUCUACAGUCCGACGAUCCUUGGUUUUCCUACCCAUGUAGUUUUGUGCAAACCAAUCAGAAUCCAUGGCUUUAAAGUUAGCGGAAAUCUGGCCUGAGAAGGCUUCAUGAAAUUCAAAAGCAUCGAUAUCAUUCAUGGUCAACAGAGGAUUGAGCAUCA
B16: 53190818_53190938_964_3pUTR_ENSG00000177200_ENST00000398510|human|control|control (ssRNA)
RNA: GGGAGUUCUACAGUCCGACGAUCGUGAAAAGGAAUUACUUCCAGUAAAAUCAGAUAAAGUCUGAUUUGUAUGAUUAGAUGCAAGAACUGCAGAGGACUGAAGUAGACUGUUUGGUGAUAUAUGAUUACUGGAAAAGGAAUAAUCAACAGAGGAUUGAGCAUCA
B17: chr8:117878989:117878990:-_ENSG00000164754_ENST00000297338|hu_hu|hu_hu_hu_mus_True|28_68 (ssRNA)
RNA: GGGAGUUCUACAGUCCGACGAUCCCAGAGGCCCUCGUUUACUGAGGACAAAAUGUGCGUAGAACAUUGUUCUGGCUUGCUAUGAAAUAAGAAGAAACCUGGAUCUCCCGCUGGGAGCGGGAGGGGUGGGUGGCCCGGGGAGGGCAACAGAGGAUUGAGCAUCA
B18: chr1:25669491:25669492:+_ENSG00000183726_ENST00000374358|perfect_dup|motif|central (ssRNA)
RNA: GGGAGUUCUACAGUCCGACGAUCACAGGUAUGGUAUGAAUGGUUGAAUUGAUCCAUCCUGGGGUACAUGACAGCCGCGUCGGUGAUGAUCCACCAUCCCGUGAAAAAUAGAACGCCAGCAGCGAUGGAGGCGAUCGUGUUCCGCAACAGAGGAUUGAGCAUCA
B19: chr4:41600979:41600980:+_ENSG00000064042_ENST00000508501|hu_hu|FALSE|FALSE (ssRNA)
RNA: GGGAGUUCUACAGUCCGACGAUCUACUCUGUUGGAUGUAUCCUGGAGGUCACUCGGGUCAAAAAGUUGAGAUUCUUUAAGGCCGAGCUCUUUACAACCUCUCAAGAAUAAGAUAAUAUUGUCCAGUCCUGCAAUGGGGGUAGGCAACAGAGGAUUGAGCAUCA
B20: chr7:7679991:7679992:-_ENSG00000106399_ENST00000396682|hu_hu|hu_hu_hu_mus_False|1_28 (ssRNA)
RNA: GGGAGUUCUACAGUCCGACGAUCUGGGAUGAAUCUUUUCCAGCUUCCCCACGAAGCACACGGGCCGGUCGAUAUACUGUGGUAACAUGCUGGCGUUGACGCGCGCUCUGGGCAAGUGCAUUAUGUCCUCCAUGAUUAUGGUCCCAACAGAGGAUUGAGCAUCA
B21: chr11:46405157:46405158:+_ENSG00000110492_ENST00000395566|hu_hu|hu_hu_hu_mus_False|8_88 (ssRNA)
RNA: GGGAGUUCUACAGUCCGACGAUCCCCUCCCCACUUUGGGCACUUGGUGAGAGGGACAGAGGACAGGCGUGAUUGACAGAGCUGACAGGAAGACAAAAGGCACUGGUGGGUUAUAUCUUGGGCCUGUGAGAGGGAGGGGCUCCGCAACAGAGGAUUGAGCAUCA
B22: chr4:95690885:95690886:+_ENSMUSG00000028572_ENSMUST00000156910|mus_mus|mus_mus_mus_hu_False|68_98 (ssRNA)
RNA: GGGAGUUCUACAGUCCGACGAUCUUUAGAAAAUGUUAAUGUUAAAUCUAAAAUAUUUUCAAAGGCUAGUCUUAUUUUACCAGAAGUCACAGGCAAGCAGACACUACAAGAAUAUAUGAAAAUGAAACUCAACAAUAUAACUGUCAACAGAGGAUUGAGCAUCA

The list shows a part of the results.

The assay concerns the target T1, UNK ZnF1-3. The assay can be described thus: nsRBNS (natural sequence RNA bind-n-seq); RBNS binding buffer (assumed for nsRBNS): 25 mM Tris pH 7.5, 150 mM KCl, 3 mM MgCl2, 0.01% Triton X-100, 500 ug/ml BSA, 20 U/ml SUPERase-In, 4 C; UNK is unkempt and MSI1 is Musashi-1; names of the RNAs are library labels; protein concentration not given here; high values mean tight binding.
For the molecule B1, the binding signal stood at 0.798 enrichment R. The result for B2 reads 2.18 enrichment R; that for B3, 1.03 enrichment R; that for B4, 0.801 enrichment R.

The molecule B5 came in with a binding signal of 0.697 enrichment R. The result for B6 reads 3.05 enrichment R. The result for B7 reads 1.17 enrichment R; that for B8, 1.14 enrichment R; that for B9, 0.605 enrichment R. In the case of B10 it was 1.01 enrichment R; in that of B11, 1.18 enrichment R. B12: the binding signal was 1.68 enrichment R. The result for B13 reads 1.25 enrichment R; that for B14, 0.774 enrichment R. In the case of B15 it was 0.91 enrichment R; in that of B16, 1.49 enrichment R; in that of B17, 1.35 enrichment R.

With B18, the binding signal turned out to be 1.81 enrichment R.

On to B19, for which the binding signal was found to be 0.835 enrichment R. The result for B20 reads 0.658 enrichment R; that for B21, 2.81 enrichment R. The result for B22 reads 1.7 enrichment R.
